# The whole screen tested about 410,000 compounds, of which about 6,400 (1.6%) were called active. Inconclusive means that the source gave no clear call. Such entries were picked first, then a sample of the others. The call rests on the fitted dose curve; in most records, active means well fitted inhibition curve with a large enough effect; inconclusive means small, poorly fitted or top-dose-only effect; inactive means no such curve, though single readings can be large or run the other way. No potency is given beside an inconclusive call; the fits are too rough.
# Molecular target: Glucagon-like peptide 1 receptor (Homo sapiens) (UniProt P43220)
# Sequence of UniProt P43220 (P43220 whole entry, looked up): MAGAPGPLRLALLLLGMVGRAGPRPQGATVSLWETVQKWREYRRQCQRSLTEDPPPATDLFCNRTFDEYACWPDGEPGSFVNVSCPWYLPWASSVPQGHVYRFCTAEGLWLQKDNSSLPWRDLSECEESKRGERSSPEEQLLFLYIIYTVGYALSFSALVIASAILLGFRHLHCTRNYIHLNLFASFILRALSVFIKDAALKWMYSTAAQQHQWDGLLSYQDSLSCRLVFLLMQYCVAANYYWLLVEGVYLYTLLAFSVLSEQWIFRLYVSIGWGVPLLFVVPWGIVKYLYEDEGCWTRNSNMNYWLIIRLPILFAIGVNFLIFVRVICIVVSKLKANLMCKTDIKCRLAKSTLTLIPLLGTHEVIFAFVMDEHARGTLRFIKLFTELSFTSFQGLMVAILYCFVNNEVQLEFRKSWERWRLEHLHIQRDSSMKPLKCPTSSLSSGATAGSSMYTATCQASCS
# Experiment: qHTS of GLP-1 Receptor Inverse Agonists (Inhibition Mode); further: nearly all actives have a fitted effect of over 55% in size
# Details: HEK293 GLP-1R CRE-luciferase, luminescence, 24 h, GLP-1R form is constitutively active; activity change, negative = inhibition: at 38.3 µM (top of the series) unless noted
# Procedure, shortened: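 Luminescence readout: a drop in cAMP-driven luciferase signal flags inverse agonism at a constitutively active GLP-1R stably expressed in HEK293. Compound exposure lasted 24 hr at 37 deg C, 5% CO2.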
# On the % scale 0 is the no-effect control and ±100 the full control effect; potency means the concentration at half of the fitted maximal effect; tags describe the fitted curve by direction and shape.
Structure (SMILES),Potency,"activity change, negative = inhibition"
CCOc1ccc(NC(=O)Cn2c(=O)nc(-c3ccccc3)c3ccccc32)cc1,inactive,
CCCCNC(=O)C(C)N(CCN(C)C)C(=O)CCCN1C(=O)NC(c2ccc([N+](=O)[O-])cc2)C(C(=O)OCc2ccccc2)=C1C (stereo unspecified),"inconclusive [inhibitor, single point]",
Cn1nnc2c[n+](CC(=O)c3ccc(Cl)cc3)cc(Br)c21,inactive,
Cc1ccc(N(CC(=O)NCC2CCCO2)S(=O)(=O)c2ccc(Cl)cc2)cc1C (stereo unspecified),"inconclusive [inhibitor, partial curve, poor fit]",
CCCCn1nc(NC(=O)CC(C)C)c2cc3cc(OC)ccc3nc21,inactive,
CC(=O)N(C(C)=O)c1cccc2c(N(C(C)=O)C(C)=O)cccc12,inactive,
COc1ccc(Cl)c2sc(N(CCN(C)C)C(=O)CCS(=O)(=O)c3ccc(C)cc3)nc12,"inconclusive [inhibitor, single point]",
COc1cc(Cl)c(NC(=O)CN2C(=O)c3cccnc3Sc3ccccc32)c(OC)c1,inactive,
COc1ccc(C)cc1S(=O)(=O)NCCC1=CCCCC1,inactive,
Cn1c(N)c(C(=O)COC(=O)C2(c3ccc(Cl)cc3)CCCC2)c(=O)n(C)c1=O,"inconclusive [inhibitor, full curve, poor fit]",
C[C@@H]1O[C@H](CCc2cccc(Cl)c2)CC2=C1C(=O)OC(C)(C)O2,"inconclusive [inhibitor, single point]",
COc1ccc([C@@H]2CC=C(C(=O)O)[C@H](c3ccc(C)cc3)N2S(=O)(=O)c2ccccc2C)cc1,"inconclusive [inhibitor, single point]",
COc1cc(/C=C/C(=O)OC2CC3CCC2(C)C3(C)C)ccc1O (stereo unspecified),"inconclusive [inhibitor, single point]",
CCOC(=O)C1=C(C)Nc2sc(C(=O)c3ccc(F)cc3)c(N)c2C1c1ccc(C(=O)OC)cc1 (stereo unspecified),"inconclusive [inhibitor, partial curve, poor fit]",
Cc1ccc(S(=O)(=O)Nc2nc3ccccc3nc2NCC2CCCO2)c(C)c1 (stereo unspecified),"inconclusive [inhibitor, single point]",
COc1ccc(C(=O)NCc2nnc(SCC(=O)Nc3nc4ccc(C)cc4s3)o2)cc1OC,"inconclusive [inhibitor, single point]",
CCOc1ccc(CN(CCc2ccc3c(c2)OCO3)Cc2cc(OC)cc(OC)c2)cc1,"inconclusive [inhibitor, partial curve, poor fit]",
Cc1ccc2c(CNCCc3ccco3)c(C(=O)O)n(Cc3ccc(F)cc3)c2c1,"inconclusive [inhibitor, partial curve]",
FC(F)(F)c1nnc(Nc2ccc(Cl)cc2)s1,"inconclusive [inhibitor, single point]",
CCc1ccc(OCc2n[nH]c(=S)n2Cc2ccccc2)cc1,"inconclusive [inhibitor, single point]",
COc1ccc(NC(=O)CCCc2nnc3n(C(C)C)c(=O)c4sccc4n23)cc1Cl,inactive,

Structure (SMILES),Potency,"activity change, negative = inhibition"
O=c1c2ccccc2[nH]c(=S)n1CCN1CCN(Cc2ccccc2)CC1,"inconclusive [inhibitor, single point]",
CC(=O)Nc1ccc(NC(=O)CSc2nc3c([nH]c4ccccc43)c(=O)n2-c2ccccc2F)cc1,inactive,
N#CC1=C(N)NC(SCC(=O)Nc2ccccc2)=C(C#N)C12CCCC2,"inconclusive [inhibitor, partial curve, poor fit]",
CC(C)CCN1CCC[C@]2(N[C@H](c3ccc(C(F)(F)F)cc3)[C@@H]3C(=O)N(Cc4ccccc4)C(=O)[C@@H]32)C1=O,"inconclusive [inhibitor, partial curve, poor fit]",
CCCC1=NN(C(=O)Cc2ccc([N+](=O)[O-])cc2)C(O)(C(F)(F)F)C1 (stereo unspecified),"inconclusive [inhibitor, partial curve, poor fit]",
O=C(CN1CCC(C(=O)c2ccc(F)cc2)CC1)NCc1ccccc1F,"inconclusive [inhibitor, partial curve, poor fit]",
Cc1cccc(N2CCN(C3C(=O)Nc4ccccc4-n4nnnc43)CC2)c1C (stereo unspecified),"inconclusive [inhibitor, partial curve, poor fit]",
Cc1ccc(/C=N/NC(=O)C(C)Oc2cccc3ccccc23)o1 (stereo unspecified),"inconclusive [inhibitor, partial curve, poor fit]",
Cc1ccc(CCC(=O)Nc2ccc([N+](=O)[O-])cc2)o1,"inconclusive [inhibitor, single point]",
O=C(N=c1nc2ccccn2s1)c1ccccc1,"inconclusive [inhibitor, single point]",
CCOC(=O)Cc1csc(NC(=O)c2cc(-c3ccncc3)nc3ccccc23)n1,"inconclusive [inhibitor, single point]",
CC(NC(=O)COc1ccccc1F)C1CC2CCC1C2 (stereo unspecified),"inconclusive [inhibitor, partial curve, poor fit]",
O=c1c2ccccc2sn1-c1ccc(S(=O)(=O)N2CCCC2)cc1,inactive,
CCOC(=O)c1c(C)oc2nc(C)nc(NCCc3ccc(OCC)cc3)c12,inactive,
COc1cc2c(cc1NC(=O)c1cccc([N+](=O)[O-])c1C)oc1ccccc12,"inconclusive [inhibitor, single point]",
CC(C)(C)c1cc(C(c2cccnc2)N2CCN(CCO)CC2)cc(C(C)(C)C)c1O (stereo unspecified),"inconclusive [inhibitor, single point]",
Cc1ccc(-c2cc(C(=O)N3CCCCCC3)no2)cc1,"inconclusive [inhibitor, single point]",
CC1=C(C(=O)NCc2cccc(Cl)c2)C2(CCCCCC2)OC1=O,"inconclusive [inhibitor, partial curve, poor fit]",
CC(=O)C1=NN(c2ccccc2)C(c2ccc3c(c2)OCO3)N1c1ccccc1 (stereo unspecified),"inconclusive [inhibitor, partial curve, poor fit]",
CC(C)(C)c1cc2ncnc(N3CCCCC3)c2s1,,inconclusive: -83.6% [inhibitor]
CC1S/C(=N/N=C2CCCCC2)NC1=O (stereo unspecified),"inconclusive [inhibitor, single point]",

Structure (SMILES),Potency,"activity change, negative = inhibition"
COC(=O)[C@@]1(Cc2ccc(F)cc2)[C@H]2c3cc(C(=O)N4CCCC4)n(CCc4c[nH]c5ccccc45)c3C[C@H]2CN1C(=O)c1ccccc1,"inconclusive [inhibitor, single point]",
COc1cccc(N2CCN(Cc3ccsc3)CC2)c1,"inconclusive [inhibitor, full curve, poor fit]",
CN(CC(=O)Nc1ccc(Cl)c(C(F)(F)F)c1)C(=O)Cc1c[nH]c2ccccc12,"inconclusive [inhibitor, partial curve, poor fit]",
Oc1ccccc1CNc1ncc(Br)cc1Br,"inconclusive [inhibitor, single point]",
Cc1cc(Oc2ccc(-c3ccccc3)cc2)n2ncnc2n1,"inconclusive [inhibitor, single point]",
Cc1ccc(SCCNC(=O)CN(c2cccc(C)c2C)S(C)(=O)=O)cc1,"inconclusive [inhibitor, single point]",
Oc1ccccc1OCCOc1ccccc1OCCOc1ccccc1O,"inconclusive [inhibitor, single point]",
COc1ccc(C)cc1NC(=S)NC(C)c1ccc(OC)c(OC)c1 (stereo unspecified),"inconclusive [inhibitor, single point]",
CCOC(=O)c1nnn(-c2nonc2N)c1-c1ccc(OCC)cc1,"inconclusive [inhibitor, single point]",
COc1ccc(-c2nn(-c3ccccc3)cc2C(=O)Nc2nccs2)cc1,"inconclusive [inhibitor, partial curve, poor fit]",
CC1(C)CC2CC(C)(CN2S(=O)(=O)c2ccc(C(=O)Nc3ccc(Cl)c(S(=O)(=O)N4CCOCC4)c3)cc2)C1 (stereo unspecified),active: 3.55 µM,
COc1ccc(C(C(=O)NCC2CCCO2)N(C(=O)CNC(=O)c2cccs2)c2ccccc2)cc1OC (stereo unspecified),"inconclusive [inhibitor, single point]",
Cc1ccc(CN2CCCN(Cc3ccc(F)cc3Cl)S2(=O)=O)cc1,"inconclusive [inhibitor, single point]",
Cc1cccc(NC(=O)C(=O)NCCc2c[nH]c3ccccc23)c1C,"inconclusive [inhibitor, partial curve, poor fit]",
NC(=S)N=Nc1c(O)n(Cc2ccccc2)c2ccccc12,"inconclusive [inhibitor, full curve, poor fit]",
Nc1ccc2nc(SCc3cccc(F)c3)sc2c1,"inconclusive [inhibitor, single point]",
Cc1cccc(C)c1-n1nnnc1C(C1CC1)N1CCN(C/C=C/c2ccccc2)CC1 (stereo unspecified),"inconclusive [inhibitor, single point]",
C[C@H](NC(=O)c1nc[nH]c1C(=O)NCCCCCNC(=O)OC(C)(C)C)c1ccccc1,"inconclusive [inhibitor, single point]",
COc1ccc(CCN2C(=O)c3ccccc3NC2c2cc(Cl)c(O)c(OC)c2)cc1 (stereo unspecified),"inconclusive [inhibitor, partial curve, poor fit]",

# Source: PubChem BioAssay AID624417 (National Center for Advancing Translational Sciences (NCATS), 2012)
